The supplement of paper PMC3334620
Over roughly 33,000 sequences, “E-score (-0.5 to 0.5)” has its median near -0.017; the highest 2% begin near 0.3. This is one part of the list.

The sequences below were run against T1, Sut1 (UniProt P53032) (assay: PBM E-score (8-mer binding enrichment) (E-score (-0.5 to 0.5)); higher = stronger / more preferred TF binding; most listed sequences are background and not binding sites). Conditions: protein concentration: 200 nM; construct: GST-full length.
T1 sequence: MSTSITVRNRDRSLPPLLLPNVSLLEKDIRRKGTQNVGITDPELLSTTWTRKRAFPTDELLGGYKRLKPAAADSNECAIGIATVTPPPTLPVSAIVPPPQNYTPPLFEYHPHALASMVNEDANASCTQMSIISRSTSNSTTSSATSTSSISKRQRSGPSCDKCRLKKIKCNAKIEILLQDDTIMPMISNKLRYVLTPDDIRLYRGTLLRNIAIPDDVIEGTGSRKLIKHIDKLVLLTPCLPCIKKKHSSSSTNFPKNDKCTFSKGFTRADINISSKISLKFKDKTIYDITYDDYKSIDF
In short: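 Full-length yeast transcription factors or their DNA-binding domains, GST-tagged and expressed with PURExpress, were applied at about 100-200 nM to universal all-10-mer Agilent arrays. These arrays had been made double-stranded by primer extension on fresh or once-stripped slides. Detection used fluorescent anti-GST, normalisation used masliner, and E-scores for ungapped eight-base words pooled with reverse complements came from the Universal PBM Analysis Suite.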

Sequence	PBM E-score
TGTCCTAA	-0.0608
AAAGCAAT	0.269
AACACAAC	0.142
CTTTGTAA	0.168
AAAGAACG	0.15
GAGCCGGA	0.254
AGCAAGGG	-0.21
AACGTACC	-0.0999
ACCATTCC	0.0388
ACGGACAG	-0.0929
CGTAGGGA	-0.245
AACTCAGC	-0.125
CAATGAAA	0.0521
CGTTGGAA	0.0116
AGTAACCG	0.175
CCTCCCCA	-0.221
AACATTGC	-0.101
AGTTTTCA	0.223
AAGCTTCT	0.0619
AGGATGGG	-0.268
AAGCAAAC	0.131
GGGATACC	-0.333
ATAGTGTA	0.184
CACAAGAA	0.19
ACGAGCTC	-0.0785

Sequence	PBM E-score
GATACCAC	0.00381
TGTCTGAA	0.0592
ACGCGAGT	-0.0896
AGGTCTAG	-0.14
AGATATAG	0.18
GGTCGACA	-0.0152
CATAGCAG	-0.277
CTCACGGA	0.095
ACACTGCC	-0.00589
ATTGGGAC	-0.0653
ACAGAGGG	-0.303
CCCCAGGC	-0.303
ATCAACCG	0.0875
ATTGTATC	0.186
ATAATTAT	0.39
ATAAATGC	0.125
CTTGTGCC	-0.213
ACCTTTCT	0.0612
CCTCTACC	-0.0759
GTGAATAA	0.185
AGACACAA	0.108
CGTAAAAA	0.201
AGGACCCT	-0.143
ATGCTTTG	0.105
TATGCATA	0.165

Sequence	PBM E-score
CATTTAGA	0.128
ACTTTCCA	0.0631
TGGTTAAA	0.159
CTCAGAGA	-0.119
GGGATTAC	-0.0612
ATTCGGCC	-0.0211
GTCATCCA	-0.00237
AAGGAACA	-0.0271
ATATCGTG	-0.016
AATGGCCG	-0.178
GAAGTGCC	-0.0133
CGCACATC	-0.156
CTCTCGTC	-0.149
ACGTTATA	0.17
AGTGCACC	-0.0859
ACACACAG	-0.0805
CATGCGGA	0.0328
CCAGGATA	-0.0911
ACAACGGC	-0.139
GTCTACTA	0.0751
CGCACCCA	-0.196
CAGCACGC	-0.138
ATGATGAG	0.0508
AGTGCATC	-0.0383
ACAACCCA	0.11

Sequence	PBM E-score
GTAGTTGA	0.0996
CGTCGACG	-0.202
AAGGCGGA	0.159
AAGGGAGG	-0.172
CATCTTAA	0.0959
GCACCTCA	0.054
AAATGACG	0.135
CTCAACGC	-0.31
AACCTGAG	-0.148
CGAGGTAG	-0.239
CGCTTCAG	0.0152
GAAAGAGC	-0.0889
CCCAAACG	-0.212
CCCACGGC	-0.266
ATGCACGG	-0.114
GCAGGCCA	-0.209
AGGGTCTA	-0.0968
GAATATGA	0.0941
ACATGAGG	-0.281
ACCGTTGG	-0.175
CATTAGTC	0.0587
CTTTTACA	0.141
ACGGGGTC	0.0521
ATTCAGCC	-0.123
ATCCCACA	-0.101

Sequence	PBM E-score
GGTGTAAC	0.0484
CGAAAGAC	0.26
ACGGCGCA	-0.0471
TGAGTGAA	-0.0239
GATGTCCA	0.00169
GAGATACC	0.0113
CAAGGAAG	-0.0615
ATCCCTTG	-0.235
GTAGGGCA	-0.136
CACCTCAC	0.0572
AGGCAGCG	-0.171
ATCAGAAG	0.0238
GCCGGACC	0.198
CTTGTATC	0.0674
GTGAAAGA	0.131
TACCGCGA	-0.0297
AGTAGTTG	0.114
CTGACCTC	-0.121
AAATCGTG	0.166
AAAAAACG	0.258
CTATCGCC	-0.0559
AAGCAACT	0.0884
GGAATTTA	0.085
CGGTGATA	0.0301
AACCTCCC	-0.165

Sequence	PBM E-score
CGCTAATC	-0.147
CCGTTAGC	-0.0378
CAGATTCC	-0.0513
CTGATGAC	-0.064
ACCAATCT	-0.0113
GCGGATGA	0.14
CATGAGAG	-0.029
ACCCTCGC	-0.285
ATACAATA	0.299
GTGGATCA	-0.172
ACACCTCC	-0.165
AGGCGTTG	-0.0499
AACCCGTC	-0.294
GCAGTAAC	-0.144
GTCGCCGA	-0.183
ATACTCTA	0.138
GAGACACA	-0.0324
AAAAACTA	0.273
ACTTCAAC	0.0443
AGAACCGC	0.0888
AGACACTC	0.0339
CGTGTGGA	-0.214
TACCGCTA	-0.217
TAGCCGAA	0.0372
CTTAGTCC	0.113

Sequence	PBM E-score
TCACTAGA	0.054
CAGTAATG	0.00981
ACACCCAC	-0.037
CCTCGGCC	0.0111
CGTTATAC	-0.062
AGTAACTA	0.0542
CAAATAAG	-0.0767
CATTCAAC	0.0914
ATTAGATG	0.303
TTAAAGAA	0.203
CATCCGGC	0.0355
TAAGGGAA	-0.116
ACCATGAA	0.099
ACCAAACT	-0.0181
GTGGTCCA	-0.141
GTGCATAA	0.0529
ATGCCAGA	-0.126
CGGGCGCC	-0.17
GCTTCCAC	-0.0573
AGTTGGCC	-0.0795
GCCCAAGA	-0.171
AAGATCCT	0.089
